The source gives no read counts; variants with many changes may rest on few reads.
B1: LINE1-full (parent)
chain: UACGUAGGUGGUUUUCCCCUGAUAGUGCUAAGGGGGCCUGGAAGUUUGGACUGGGCAGAGCUCAACACAGCGUGGCAAAGUGGCUGUGGCUAGACUGCCUCUCUGGAUUCCUCGUCACUCAGCAGGGCAUCUCUGAGAGAAAUGCC

Variants of: B1
Test: self-cleavage, relative activity (ratio to wild type); higher = more cleavage; in vitro, sequencing; the parent is a self-cleaving ribozyme

| Variant | self-cleavage |
| --- | --- |
| A43G U45C U132C | 0.31 |
| U46C A64C A140G | 0.3 |
| U46A G54A A57G A65U | 0.02 |
| A43G U45C A50G | 0.77 |
| A43G A69G A77U | 0 |
| U45C A92U A124G | 0.56 |
| U45A A92G A136G | 0.07 |
| A43G C66U U73C A94U A107G | 0.09 |
| A42U U108A U143C | 0.98 |
| A43G A79G U91C U96A A124G | 0 |
| A43G A78G U134C | 1.6 |
| U45C G82A G93U A138G | 0 |
| U45G C66U G74A G82A | 0.03 |
| U45C A67U U81C A94G C113A | 0 |
| A43G A124U A140G | 1.08 |
| U46C A64G U143A | 0.31 |
| U45A G72A U85A | 0.04 |
| U45A C84G U85A U100A A140U | 0.03 |
| A43G U46C U100C | 2.04 |
| A43G U73C U104A U132C | 0.95 |
| G44U C118U A141G | 0.6 |
| A43U U100C A117G | 0.99 |
| A43G U52A U143A | 0.74 |
| U46A A67U U85C U108A U112C | 0.03 |

| Variant | self-cleavage |
| --- | --- |
| A43G A77G A94G | 1.31 |
| U45C A94U A141G | 0.48 |
| A43G U73C G86A | 0.1 |
| U45C A136U G144A | 1.68 |
| U45C G93A U109C | 0.12 |
| A43U A67U U73C A94G U130C | 0 |
| A43G A79U C145U | 1.15 |
| U46C A57C A69U C84A | 0.05 |
| A43G U119C A142G | 1.36 |
| A43U G80A A94G | 0.18 |
| U45C U91A A129C | 0.95 |
| A43U U87A U143C | 0.04 |
| U45A U115C A142G | 1.55 |
| U46A A64U A77U G83U U119C A136G U143C | 0.25 |
| U45C A59U U109C U112C A138G | 1.1 |
| U45C U104C A141G | 2.13 |
| A43U U112C A142G | 1.87 |
| A43G U62A U73A C95U U143C | 0.03 |
| A43G G53A A67G A107G U119C U132C | 0 |
| A43U U62C A142G | 0.11 |
| A43G U81A U96G | 0.12 |
| A43G U62C A64G U130A | 0 |
| G44A U115C A129U A142G | 2.61 |
| A43G U81A G114A A138G | 1.53 |

| Variant | self-cleavage |
| --- | --- |
| U46A U73A A94G G135U | 0.38 |
| U45C G97U U100C | 0.13 |
| A43U A50G A78G G137U A138G | 0.55 |
| U45C A78G A117U | 1.12 |
| A43G U81A U132C | 2.12 |
| A43G A57U G58A A121G | 0.06 |
| U46A U73A C116A | 1.12 |
| U45C U62C U100C | 0 |
| A43G A65U U119A U132A | 0.27 |
| U45C U73G G83A U91A | 0.08 |
| U45C C56U C95U A138G | 0.07 |
| U46A C76G C101U C120A A129G | 2.21 |
| U46A A78C U91C | 0.3 |
| A43G U96A C110A | 0.08 |
| A43G U45C U46C G88U C116U | 0.06 |
| U45C U46C C56U G105A | 0.26 |
| A43G U100C U130C | 2.51 |
| A43G C56U U73C U104C | 0.35 |
| A43G A64U U100C | 0.93 |
| A43G U73G A140G | 1.23 |
| A43G U46C U81C A140G | 2.12 |
| U45C A57G A67U | 0.17 |
| U45G U46C U102A | 1.84 |
| A43G A94U A140G | 0.16 |

| Variant | self-cleavage |
| --- | --- |
| A43G U87C A124U | 0.46 |
| U45C C63U U143A | 0.38 |
| U45G A64U A121G | 0.27 |
| A43U A57U A121G | 0.11 |
| A43G A79U U96A | 0.09 |
| A43G U87C U115C | 0 |
| A43G U46A A50G U62A A69G G72U G83A U108C U130C | 0 |
| U45C U47C U87A U100C A138G | 0 |
| A43G A77U C101U A129U | 1.17 |
| U45A C51A U73C | 1.21 |
| U45A U91C U143A | 0.63 |
| A43G A57G A79G U134C | 0 |
| U45C U73A A136G | 1.76 |
| U45C U62C A65U | 0.05 |
| A43G A79G U130C | 1.04 |
| U45C A64U G80A A141G U143A | 0.76 |
| A42U U109G U115C U143A | 0.23 |
| A43G G44A A136G | 0.52 |
| A43G A59U U115A U143C | 0.81 |
| G44A U47A U115C A141G | 0.54 |
| A43G U52G A59G A138G | 1.84 |
| A42U U108C U143C | 1.23 |
| A43G G49U A67G | 0.1 |
| A43G G53A U132C | 1.11 |

| Variant | self-cleavage |
| --- | --- |
| A43G A50U A77C | 0.38 |
| A43G U96C U102C | 0.34 |
| G44A U115C A124G U132C | 1.1 |
| U46C A57G U73A | 0.61 |
| U45A A64G U73C A117U U132C U143C | 1.06 |
| A43G C61U A69G | 0.02 |
| U45C A50G A69U G126A A138G | 0.11 |
| A43G A50U A138G | 0.56 |
| A43G U52A A142G | 1.46 |
| G44A U45G A67G | 0.31 |
| U45C U112C C133A | 0 |
| U45C U62G A140G | 0.37 |
| A43G A79U U81A A140G | 2.65 |
| U46C A69G U109C | 0.22 |
| A43G A77U U87A | 0.05 |
| U46A U100A A142G | 0.7 |
| A43G U81A A138G | 0.79 |
| U45C U62C U109C A138U | 0.16 |
| U45C C68A A141G | 0 |
| U45C U91C U96C | 0 |
| A43G U112C U130A | 1.69 |
| A43U U81C C110A | 1.05 |
| A43G A79U C98U A142G | 0.58 |
| U45A A64G C76U | 0.17 |

| Variant | self-cleavage |
| --- | --- |
| U46C A67U U96C | 0.07 |
| U46A G74A G86U | 0.07 |
| A43G U109C A142G | 1.92 |
| A43G A67G G88U U112A | 0.07 |
| A43C A78G U100A C123A U134G A141G | 0 |
| A43G U112C C145A | 1.59 |
| A43G U85C A140U | 0.35 |
| U45C U73C U132C A140U | 2.3 |
| U45C A138C A142G | 0.74 |
| U45C U112C A129G U132A | 1.72 |
| A43U U45A A77U | 0.8 |
| U45A A65G U104C C120U A141G | 0.05 |
| U45C U85G G89A | 0.05 |
| A43U U47C A65G | 0.11 |
| A43G U45C A67U U108A | 0.27 |
| U46A U115G C123A | 1.37 |
| U46A A77U U143C | 1.19 |
| U45A U109A A138G | 2.04 |
| U45A U73C A117U | 1.73 |
| G44A U109C U143A | 0.99 |
| U45A G88A A121U | 0.04 |
| U45C A77G U102A A124C | 0 |
| U45C U81A U115C U119A | 2.19 |
| U45C A64U U87A C128U A140G | 0.03 |

| Variant | self-cleavage |
| --- | --- |
| A43U U91C U130C A138G U143A | 0.92 |
| U45A C76U C146U | 2.43 |
| A43G C63U A79C U119A | 0.43 |
| A43G U73C U134C | 1.79 |
| A43G U52A A64U A94G C133U | 0.12 |
| A42U U52A A59G A140G | 0.08 |
| A43G U47A A65G U143C | 0.14 |
| A43U U81C U102A | 1.31 |
| A43G U73A U112C | 1.23 |
| A43G U46C A77U U134A | 1.39 |
| U46A A50G A138G | 2.9 |
| A43G U85C A94G | 0 |
| A43G U81C U87C | 0 |
| A43G U102C A142G | 0 |
| U45C U47A U100C U130A A141G | 1.97 |
| U46A A78U U87G | 0.26 |
| A43G U104A U119C | 0.42 |
| A43G A57U A59G | 0.2 |
| A43G U115C A140G | 1.84 |
| A43G U46A U109C A142G | 0.69 |
| A43G U85C U109C G125U | 0.36 |
| A43U U100C U108C | 1.84 |
| U45G A92U U108C A136G | 0.93 |
